Measurements: PubChem BioAssay AID493208 (National Center for Advancing Translational Sciences (NCATS), 2011)
About 340 (0.77%) of roughly 44,000 compounds were called active. About 5% were inconclusive and are not listed. The call rests on the fitted dose curve; in most records, active means well fitted inhibition curve with a large enough effect; inconclusive means small, poorly fitted or top-dose-only effect; inactive means flat fitted curve, though single readings scatter. The list shows a part of the results.

Assay: Acumen qHTS Assay for Inhibitors of the mTORC1 Signaling Pathway in MEF (Tsc2-/-, p53-/-) Cells: Sytravon;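 further: plate controls were DMSO for no effect and rapamycin for full effect; nearly all actives have a fitted effect of over 50% in size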
Settings: phospho-rpS6 immunofluorescence/PI, 24 h; series mostly up to 38.3 µM; activity change, negative = inhibition: at the top concentration
Outline: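 Plate MEFs (Tsc2-/-, p53-/-, empty vector) in DMEM/10% FBS; after 24 h add compound, incubate 24 h at 37 degree Celsius; fix in PFA/TX-100, block, stain phospho-rpS6 and 10 uM PI; scan at 488 nm; report % positive cells.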

Activity change, negative = inhibition, inactive:
Cc1cc(C)c(NC(=O)Cn2c(=O)n(-c3cccc(C(F)(F)F)c3)c(=O)c3c(C)c(C)sc32)c(C)c1 -1.28%
CC(=O)N1CCOc2cc(S(=O)(=O)NCc3ccccc3Cl)c(C)cc21 4.36%
O=C(O)c1ccc(Nc2nc3ccccc3c3nncn23)cc1 8.2%
COc1ccccc1NC(=O)C(Cc1ccccc1)NS(=O)(=O)c1ccc2c(c1)CCN2C(C)=O (stereo unspecified) 0.514%
CCc1ccccc1Nc1nn2c(=O)c3ccc(C(=O)NCc4ccc(C)cc4)cc3nc2s1 -12.4%
CC(C)(C)C(=O)Nc1cc(-c2cccc(Br)c2)nn1-c1ccccc1 -9.73%
COCCCNC(=O)c1ccc(Cn2c(=O)c3ccccc3n(CC(N)=O)c2=O)cc1 7.06%
CCOC(=O)c1ccc(NC(=O)CSc2nc3ncc(Br)c(C)c3[nH]2)cc1 -4.28%
CCN(C(=O)c1ccc2c(c1)N(Cc1cccc(Cl)c1)C(=O)c1ccccc1S2=O)c1ccccc1 (stereo unspecified) -0.822%
CCC(=O)N1c2ccccc2CC1C(=O)NCCCN1CCN(c2cc(C)ccc2C)CC1 (stereo unspecified) 0%
COc1ccc(-c2cc3nc(N)cc(=O)n3[nH]2)cc1 1.08%
O=C(NCCCc1nc2ccccc2n1Cc1ccc(F)cc1)C1CCCCC1 -0.396%
Cc1ccc(C)c(CSc2nc3c([nH]c4ccccc43)c(=O)n2C)c1 -1.65%
CC(C)c1ccc2oc(-c3ccc(Cl)c(NC(=O)c4cccs4)c3)nc2c1 -15.2%
Cn1nc(-c2ccc(OCC(=O)Nc3cccc(C(F)(F)F)c3)cc2)c2ccccc2c1=O -25.9%
Cc1cccc(C)c1OCc1cc(=O)n2c(-c3ccccc3)csc2n1 -10.5%
COc1ccc(NC(=O)c2cc(S(=O)(=O)N3CCOCC3)cn2C)cc1Cl -1.24%
Cc1ccc(C(=O)Nc2ccc(F)cc2)cc1S(=O)(=O)N1CCCCCC1 3.99%
COc1cccc2c1cc1c(=O)n(CC(=O)N3CCN(c4ccccc4F)CC3)nc(C)n12 -8.46%
O=C1CS(=O)(=O)C2(C(=O)Nc3ccccc32)N1c1cccc(Cl)c1 (stereo unspecified) -4.84%
CCOc1ccc(NC(=O)CCCc2nc(-c3cccc(OC)c3)no2)cc1 -10.7%
Cc1ccc(CNC(=O)c2sc3nc(C)cc(C)c3c2-n2cccc2)cc1 0%
Cc1cccc(Cn2c(C)c(C)c3cc(C(=O)NCc4ccco4)ccc32)c1 -9.9%
CC(=O)Nc1ccccc1OCc1cc(=O)n2c3c(sc2n1)CCCC3 -0.118%
Cn1c2ccccc2c2cnn(CC(=O)NCc3ccc(Cl)cc3)c(=O)c21 -0.708%
COc1ccc2[nH]c(=O)c(CN(C(=O)c3cccc(Cl)c3)c3ccccc3OC)cc2c1 0.784%
COc1ccc(S(=O)(=O)NCCc2csc3nc(-c4ccc(Cl)cc4)nn23)cc1C -15.4%
CS(=O)(=O)N1CCc2cc(S(=O)(=O)NCc3ccccc3Cl)ccc21 -2.14%
COc1ccc(-c2nc(Cn3c(SCc4cccc(Cl)c4)nc4ccncc43)c(C)o2)cc1 -14.3%
Cn1cnc(S(=O)(=O)N2CCC(C(=O)NCc3ccccc3)CC2)c1 -8.64%
CC1=C(c2ccc(F)cc2)S(=O)(=O)N=C1N1CCC(C(=O)NCCc2ccco2)CC1 -16.7%
CCOC(=O)c1c(S(=O)(=O)N2CCCC(C(=O)N(C)Cc3ccccc3)C2)c(C)n(C)c1C (stereo unspecified) 1.26%
COc1cc(NC(=O)Cn2ccn(Cc3ccccc3OC)c(=O)c2=O)cc(OC)c1 -0.369%
COC(=O)c1cc2c(cc1NC(=O)c1c(C)nn(-c3ccc(C)cc3)c1-n1cccc1)OCO2 -0.619%
Cc1cccc(-n2c(-c3ccco3)nc3c(cnn3-c3ccccc3C)c2=O)c1 1.35%
Cc1ccc(C(c2sc3nc(-c4ccco4)nn3c2O)N2CCOCC2)cc1 (stereo unspecified) -0.592%
COc1ccccc1NC(=O)CSc1nc2ccccc2c(=O)n1CCC(=O)NC1CCCCC1 0.762%
O=C(CN1CCN(Cc2ccc(F)cc2Cl)S1(=O)=O)Nc1ccc(F)cc1 -2.3%
Cc1ccc(Cn2nc(C)c(NC(=O)c3cc(-c4ccc(F)cc4)on3)c2C)cc1 -16.9%
Cc1nn(C(=O)c2ccccc2)c(C)c1Sc1ccc(Cl)cc1 -2.73%
CCOc1ccc(NC(=O)Cn2c(=O)oc3cc(S(=O)(=O)NC4CCCC4)ccc32)cc1 -6.69%
Cc1ccc(NC(=O)Cn2c(C)cc(C)c(C#N)c2=O)cc1 28.8%
Cc1ccccc1NC(=O)C1CCC(CNS(=O)(=O)c2ccc3c(c2)C(C)(C)C(=O)N3C)CC1 (stereo unspecified) 0%
CCOc1ccc(CCNC(=O)c2cn(C)c3ccc(S(=O)(=O)N4CCOCC4)cc3c2=O)cc1OCC 1.32%
Cc1ccc(-n2ncc3c(N(C)Cc4ccccc4)ncnc32)cc1 11.8%
Cc1cc(NS(=O)(=O)c2ccc(NC(=O)c3ccccc3F)cc2)nc(C)n1 -7.76%
COc1ccc(OCc2ccc(-c3nc(C#N)c(N4CCC(C)CC4)o3)o2)cc1 -1.68%
CCCNC(=O)C(=O)NCC(c1ccc2c(c1)OCO2)N1CCOCC1 (stereo unspecified) -14.4%
Cc1ccc(NC(=O)c2ccc3snnc3c2)cc1Cl 4.49%
CCc1ccc(S(=O)(=O)c2nnn(-c3ccc(F)cc3)c2N)cc1 -1.9%
C=C(C)Cn1c(SCC(=O)Nc2cc(C)ccc2C)nc2sc3c(c2c1=O)CCCC3 -17.8%
CCC(=O)N1CCc2cc(Br)cc(S(=O)(=O)CCC(=O)N3CCN(c4ccccc4OC)CC3)c21 -0.0101%
CCOC(=O)c1ccc(N2CCN(c3ccc(F)cc3)CC2)c(NC(=O)Nc2cccc(OC)c2)c1 -0.295%
COc1ccc(-c2ccnc3[nH]n(-c4ccccc4)c(=O)c23)cc1 2.61%
COc1ccccc1N1CCN(S(=O)(=O)c2ccc3[nH]c4c(c3c2)CCCC4)CC1 -0.325%
CCOc1cc(-c2nnc(SCC(=O)NCc3ccccc3)nc2-c2ccc(OC)c(OCC)c2)ccc1OC -14.4%
CCc1ccc(NC(=O)C2CCCN(S(=O)(=O)c3ccc4c(c3)CCCN4C(C)=O)C2)cc1 (stereo unspecified) 0.158%
Cc1ccc(-n2ncc(C(=O)N3CCCCC3)c2C2CCN(C(=O)OC(C)(C)C)CC2)cc1C 3.69%
COc1ccc(C(=O)N2CC(=O)Nc3ccc(C)cc3C2c2ccccc2)c(OC)c1 (stereo unspecified) 3.4%
COc1ccc(Cn2c(C(=O)O)c(CNCCc3cccs3)c3ccc(C)cc32)cc1 -8.64%
COc1ccccc1CNC(=O)c1ccc2c(c1)N(Cc1cccc(Cl)c1)C(=O)c1ccccc1S2(=O)=O -15.9%
